# Measurements: PubChem BioAssay AID624171 (National Center for Advancing Translational Sciences (NCATS), 2012)
# Out of some 410,000 compounds screened, about 1,200 (0.29%) were called active. The shares of active, inactive and inconclusive entries below differ from those in the screen. Calls come from the whole dose curve; as a rule, active = well fitted activation curve with a large enough effect; inconclusive = small, poorly fitted or top-dose-only effect; inactive = flat fitted curve, though single readings scatter. Where the call is inconclusive, the potency comes from a doubtful curve fit.
# Experiment: qHTS of Nrf2 Activators; note: nearly all actives have a fitted effect of over 65% in size
# Conditions: AREc32 ARE-luciferase reporter (MCF7-derived line), luminescence, 24 h; series mostly up to 46.1 µM
# In short: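 AREc32 cells carrying an ARE-driven firefly luciferase, 1000 cells/well in OPTI-MEM with 5% FBS, dosed after overnight attachment and incubated 24 hr at 37 deg C. Steady-Glo luminescence read after 30 min at RT.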
# Potency is the fitted concentration of half-maximal effect; tags give direction and shape of the fitted curve.
row,SMILES,Potency
1,NC(=O)CCCn1c(C(=O)c2cc(Cl)c(N)c(Cl)c2)c2ccc([N+](=O)[O-])cc2[n+]1[O-],"inconclusive: 8.91 µM [activator, partial curve]"
2,O=C(NCC1OCCc2ccccc21)c1ccco1 (stereo not drawn),active: 11.2 µM
3,O=C(Nc1ccc(Cl)cc1)/C(=C/c1cccc(O)c1)c1nc2ccccc2s1,"inconclusive: 3.55 µM [activator, single point]"
4,CCCCC[C@H](C)N1C[C@H](COCc2ccccc2)Oc2cc(N3CC[C@@H](N(C)C)C3)ccc2S1(=O)=O,inactive
5,C=CCc1cccc(C=Nc2cc(Br)ccc2O)c1O,active: 6.31 µM
6,Cc1cccc(NC(=O)Nc2ccc(Br)cc2)n1,"inconclusive: 2.82 µM [activator, full curve, poor fit]"
7,CC1=NNC(=O)C1CC(=O)N/N=C/C(Br)=C/c1ccccc1 (stereo not drawn),"inconclusive: 22.4 µM [activator, single point]"
8,Fc1ccc(N/N=C2/CCSc3sccc32)c(F)c1,"inconclusive: 14.1 µM [activator, single point]"
9,Cc1ccc(NC(=O)CSc2nc3ccccc3c3nc(CCc4c(C)n[nH]c4C)nn23)c(C)c1,inactive
10,CCc1nc2c(OCCC3CCCCC3)cccn2c1N(C)C(=O)CC(C)C,inactive
11,CCn1cc(C(=O)NCc2ccco2)c(=O)c2cc(F)c(N3CCN(C(=O)c4ccco4)CC3)cc21,inactive
12,O=C(NCCc1csc(-c2ccc(F)cc2)n1)c1cccs1,inactive
13,CC(C)Oc1ccc2c(=O)c(-c3ccccc3)coc2c1,inactive
14,Cn1cccc1C(=O)NC(=O)COC(=O)C12CC3CC(CC(O)(C3)C1)C2,inactive
15,Cc1cccn2c(=O)c(/C=C(\C#N)C(=O)NC3CCS(=O)(=O)C3)c(Oc3ccccc3Cl)nc12 (stereo not drawn),"inconclusive: 35.5 µM [activator, single point]"
16,O=C(NC(=S)Nc1cccc([N+](=O)[O-])c1)c1ccco1,"inconclusive: 5.01 µM [activator, partial curve, poor fit]"
17,CC(=O)Nc1nnc(S(N)(=O)=O)s1,inactive
18,Cc1ccc(OCC(=O)c2c[nH]c3ccccc23)c([N+](=O)[O-])n1,"inconclusive: 15.8 µM [activator, single point]"
19,O=C1/C(=C\c2ccc(O)cc2)SC(=S)N1c1cccnc1,inactive
20,CC(C)(C)c1csc(Sc2ccc([N+](=O)[O-])cn2)n1,"inconclusive: 25.1 µM [activator, single point]"
21,CC(CN1CCOCC1)OC(=O)c1ccc(Br)cc1 (stereo not drawn),"inconclusive: 22.4 µM [activator, single point]"
22,O=Cc1c(Cl)nc2ccccn2c1=O,"inconclusive: 14.1 µM [activator, single point]"
23,Cc1ccc(C(=O)/C=C/Nc2ccccc2C(N)=O)o1,"inconclusive: 8.91 µM [activator, partial curve]"
24,CC(C)(C)C(=O)NCCN1C(=O)S/C(=C\c2ccc([N+](=O)[O-])cc2)C1=O,"inconclusive: 15.8 µM [activator, single point]"
25,CCCNC(=O)C1(C)CCN(Cc2ccc(-c3ccccc3)o2)C1 (stereo not drawn),"inconclusive: 22.4 µM [activator, single point]"

row,SMILES,Potency
1,Cc1nc(Sc2ccc(Br)cc2)c(C#N)c(C)c1[N+](=O)[O-],"inconclusive: 20 µM [activator, single point]"
2,Cc1ccc(CNC(=O)c2cnc3c(-c4ccccc4)c(C)nn3c2C)o1,inactive
3,COc1cc(OC)cc(-c2nc(-c3cccs3)no2)c1,"inconclusive: 4.47 µM [activator, partial curve]"
4,O=C(Cn1nc(Cl)nc1Cl)c1cc2ccccc2oc1=O,"inconclusive: 15.8 µM [activator, single point]"
5,COc1ccccc1-n1cc2ccc([N+](=O)[O-])cc2n1,active: 11.2 µM
6,COc1cc(NS(=O)(=O)c2ccc(C)cc2)c2ncccc2c1,"inconclusive: 7.94 µM [activator, partial curve]"
7,O=c1cc(-c2ccccc2Cl)oc2c(Br)ccc(O)c12,"inconclusive: 3.98 µM [activator, partial curve, poor fit]"
8,CC(C)(C)c1[nH]nc2c1C(c1ccsc1)C(C#N)=C(N)O2 (stereo not drawn),"inconclusive: 22.4 µM [activator, single point]"
9,COc1cccc2cc(-c3nc(-c4cccs4)cs3)c(=O)oc12,"inconclusive: 11.2 µM [activator, partial curve, poor fit]"
10,COC(=O)c1sccc1NC(=O)c1ccco1,active: 11.2 µM
11,Cc1nnc2n(c1=O)N=C(c1ccc(Cl)cc1)CS2,"inconclusive: 11.2 µM [activator, partial curve]"
12,Cc1cccc(NC(=O)c2ccc([N+](=O)[O-])o2)c1C,"inconclusive: 3.16 µM [activator, partial curve, poor fit]"
13,Cc1ccc(C(=O)NC(=S)Nc2ccc3c(c2)OCCO3)c(C)c1,inactive
14,Cc1nc2scc(-c3ccco3)c2c(=O)n1/N=C/N(C)C,"inconclusive: 12.6 µM [activator, partial curve]"
15,O=C(Nc1nnc(-c2ccccc2F)s1)c1cccnc1,"inconclusive: 12.6 µM [activator, partial curve]"
16,O=C(CSc1c2c(nc3cc(Cl)ccc13)CCCC2)N1CCN(c2ccccc2F)CC1,"inconclusive: 12.6 µM [activator, partial curve]"
17,CCOC(=O)c1c(C)oc2c1c(CN1CCN(CCO)CC1)c(O)c1ccccc12,"inconclusive: 11.2 µM [activator, partial curve, poor fit]"
18,S=c1nccc(-c2cc(Cl)sc2Cl)[nH]1,"inconclusive: 22.4 µM [activator, single point]"
19,O=C(N/N=C/C(Br)=C/c1ccccc1)c1ccncc1,"inconclusive: 3.55 µM [activator, partial curve, poor fit]"
20,O=C(c1cc(=O)c2ccccc2o1)N1CCN(c2ccccc2)CC1,"inconclusive: 20 µM [activator, partial curve, poor fit]"
21,CCc1cc2c(=O)c(-c3nc(C)cs3)coc2cc1O,"inconclusive: 3.16 µM [activator, full curve, poor fit]"
22,O=c1nc2c(-c3ccccc3F)n[nH]n2c2ccccc12,"inconclusive: 3.16 µM [activator, full curve]"
23,Cc1sc(NC(=S)NC(=O)c2ccco2)c(C#N)c1C,"inconclusive: 2.51 µM [activator, partial curve, poor fit]"
24,Cc1ccc(C(=O)c2ccccc2C(=O)OCC(=O)Nc2cccc([N+](=O)[O-])c2)cc1,"inconclusive: 15.8 µM [activator, single point]"
25,COC(=O)c1c(NC(=S)Nc2ccc(C(=O)N3CCOCC3)cc2)sc2c1CCC2,inactive

row,SMILES,Potency
1,O=C(CCCN1C(=O)/C(=C\c2cccc(Br)c2)SC1=S)Nc1cccnc1,active: 10 µM
2,Cc1ccc(-n2nc(CO)c(C(=O)NCCO)n2)cc1,inactive
3,CCOC(=O)c1c(NC(=O)c2ccc(S(=O)(=O)N(C)C)cc2)sc2c1CCN(C)C2,"inconclusive: 31.6 µM [activator, single point]"
4,Cc1ccccc1CCNCc1c(C(=O)O)c(C)n(Cc2c(F)cccc2Cl)c1C,inactive
5,Cc1ccc(C(=O)NC(Cc2cccc(C(F)(F)F)c2)C(=O)O)cc1 (stereo not drawn),inactive
6,Cc1cccc(-c2nc(-c3ccncc3)no2)c1,active: 12.6 µM
7,c1ccc(Nc2nc(-c3ccccc3)ns2)cc1,"inconclusive: 2.82 µM [activator, full curve, poor fit]"
8,O=C1c2ccccc2CC1Sc1nnc(-c2ccncc2)o1 (stereo not drawn),"inconclusive: 17.8 µM [activator, single point]"
9,COC(=O)c1cccc(C(=O)Nc2ccc(F)cc2)n1,inactive
10,Cc1cccn2c1nc(=S)n2C(=O)c1ccco1,"inconclusive: 2 µM [activator, full curve, poor fit]"
11,O=c1cc(C(Cl)(Cl)Cl)oc2c1ccc1ccccc12,active: 12.6 µM
12,NC[C@H](O)c1ccc(O)c(O)c1,inactive
13,CCN(CCCNC(=O)c1cc2c(=O)[nH]c3ccc(C)cc3c2s1)Cc1ccccc1,inactive
14,COc1ccc(C2=Nc3cc(C)ccc3OC2)cc1,"inconclusive: 11.2 µM [activator, partial curve, poor fit]"
15,CC(=O)NNC(=O)CN1C(=O)/C(=C/c2ccccc2)SC1=S,"inconclusive: 31.6 µM [activator, partial curve, poor fit]"
16,O=C(/C=C1\NCC2c3ccccc3CCN2C1=O)c1ccccc1 (stereo not drawn),"inconclusive: 35.5 µM [activator, single point]"
17,O=C(Cc1ccccc1)Nc1nc(=O)c2ccccc2s1,"inconclusive: 11.2 µM [activator, partial curve, poor fit]"
18,Cc1ccc(CNC(=O)CSc2nc3ccsc3c(=O)n2NC(=O)c2ccccc2)cc1,"inconclusive: 22.4 µM [activator, single point]"
19,Cc1ccccc1-c1cc2nc(NCCc3ccncc3)n(C)c(=O)c2s1,inactive
20,COc1ccc(C(C#N)N2CCC(c3ccccc3)=N2)cc1OC (stereo not drawn),"inconclusive: 22.4 µM [activator, single point]"
21,Cc1ccccc1C1=NC(C(F)(F)F)(C(F)(F)F)c2c(n(C)c(=O)n(C)c2=O)N1,inactive
22,COc1cc(C=C2Cc3ccccc3C2=O)cc(OC)c1OC,active: 7.08 µM
23,O=C(CCS(=O)(=O)c1ccccc1)N(CCCN1CCOCC1)c1nc2ccccc2s1,"inconclusive: 22.4 µM [activator, single point]"
